Measured values published in the RNAGym collection of RNA variant scans (doi:10.7554/elife.90254).
The source gives no read counts; variants with many changes may rest on few reads.

B1: LINE1-mini (parent)
chain: GGCAGAGCUCAACACAGCGUGGCAAAGUGGCUGUGGCUAGACUGCC

Variants of: B1
Assay: self-cleavage, relative activity (ratio to wild type); higher = more cleavage; in vitro, sequencing; the parent is a self-cleaving ribozyme

Variant | self-cleavage
G1A A11C G17A | 0.1
G1C C3U U43A | 0.1
G1C A6C C45A | 0.1
G1A G22C U34C | 0.09
G1A C15A G21U G27C | 0.1
G1C C10G C18A A24U G40A | 0.01
G1A A6U A11U C37U | 0.02
G1A G36C G40U C46U | 1.18
G1C A4U C23A | 0.03
G1A C3A G35U | 2.39
G1C A11G A24U C42A | 0
G1A A6C U32A G40U | 0.08
G1C A11G A16G A39U | 0.01
G1A G5C G44U C45U | 0.05
G1A C8A G27C G30U | 0.3
G1A U20C A25U C31U A41U | 0.04
G1A G5A G21A G30U G36A G40U | 1.07
G1A G7U A16C G22A U38C C42A U43A | 0.08
G1C A16G A24C | 0.01
G1A C10G C15U G19A G33U A39U C45G | 0.05
G1A A6G G21C | 0.04

Variant | self-cleavage
G1A C3G C8U G44U | 0.18
G1C C3G A25U | 0.19
G1A G35C G40C | 0.05
G1C A12U U38A G44A C45A | 0.03
G1C A6G A12C A14G A25C | 0
G1A A4U U9C U38C C42A | 0.02
G1A U20A A24U G35A G44C | 0.04
G1C C8G A11C C18U C46U | 0.02
G1A A14U G35U | 0.15
G1C A12G C46U | 0
G1A G5A A11C | 0.06
G1A A4G G21U | 0.14
G1A A6C C10G G17U G40A | 0.01
G1C A12C G17U G21U G35U | 0.01
G1C C13A G22U U32C G33A G40A | 0.02
G1C A24C C42A | 0.02
G1A G17C A24U G40U C45U | 0.03
G1C A14C G17U U34G G36U U43A | 0.01
G1C A6U U9C C31G G35U C37G | 0
G1C C8U G40U | 0.02
G1A U9C G19A C23A A24U C31U U34C | 0.02

Variant | self-cleavage
G1A C8G G22C | 0.04
G1A C8A G17A G19C A26G | 0.31
G1C C10A G22U | 0
G1A G17U G21C A39U | 0.1
G1C C10G A26U | 0.01
G1A A6U G21A G30C | 0.8
G1C A11C G44U | 0.05
G1A A14G G27A | 0.29
G1A C3G C23U A26U | 0.71
G1A U28G U38A | 0.07
G1C C3A C10G U32C G44U | 0.01
G1A A14U G19C G40A U43A | 0.01
G1A G21U U38G | 0.05
G1C A11U G27U C42U | 0.01
G1C A12U C31G G40A | 0.01
G1A G2U A16G C18U A26G G36C A41C | 0.01
G1A G7A U9A | 2.04
G1C C8A G17U G33A C37U U43C | 0.04
G1A A25G G40C | 0.03
G1C A16U A25U | 0.03
G1A G5A A6G A12C C31G | 0.03

Variant | self-cleavage
G1A G5A G7U A12C A25U G30C G36U | 1.05
G1A G21U C46A | 1.02
G1A U9G G35U U38A | 0.07
G1C A16G U20G G30C | 0.01
G1A G2U G17C | 0.15
G1A A12G G22U A24C A39C | 0.03
G1C C8A G30U | 0.06
G1A A4C A11U C18G G22C C42U | 0.02
G1A C15A G17C G33C | 0.05
G1A A16U G17C G44A | 0.28
G1A A39G C42U | 0.06
G1C C8A G19U C31U | 0.06
G1A A25C U28C | 0.13
G1A G36C C42U | 0.07
G1A G2U G21C A25C G29A U32G C45U | 0.11
G1A A11G C23G | 0.05
G1C A6U G7A | 0.02
G1C C3U A12G C37U C46U | 0.07
G1A C18G C23A | 0.14
G1A G27C C46G | 1.71
